# Assay results reported in paper PMC6919601, “Identification of Plasmodium dipeptidyl aminopeptidase allosteric inhibitors by high throughput screening” (PLoS ONE, 2019).
# Out of some 110,000 compounds screened, about 230 (0.21%) showed an effect of 50% or more. Some of the results follow.
# Target: DPAP1 (Plasmodium falciparum, UniProt Q8IIJ9)
# Assay: primary screen, percent inhibition; read by cleavage of a fluorogenic dipeptide substrate; higher = more effect of the substance
# Set-up: species or system P. falciparum D10 trophozoite lysates; single well
# 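Also: 30 min substrate incubation versus DMSO and 10 µM JCP410 controls.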
# Sequence of DPAP1 (Q8IIJ9 whole entry, looked up): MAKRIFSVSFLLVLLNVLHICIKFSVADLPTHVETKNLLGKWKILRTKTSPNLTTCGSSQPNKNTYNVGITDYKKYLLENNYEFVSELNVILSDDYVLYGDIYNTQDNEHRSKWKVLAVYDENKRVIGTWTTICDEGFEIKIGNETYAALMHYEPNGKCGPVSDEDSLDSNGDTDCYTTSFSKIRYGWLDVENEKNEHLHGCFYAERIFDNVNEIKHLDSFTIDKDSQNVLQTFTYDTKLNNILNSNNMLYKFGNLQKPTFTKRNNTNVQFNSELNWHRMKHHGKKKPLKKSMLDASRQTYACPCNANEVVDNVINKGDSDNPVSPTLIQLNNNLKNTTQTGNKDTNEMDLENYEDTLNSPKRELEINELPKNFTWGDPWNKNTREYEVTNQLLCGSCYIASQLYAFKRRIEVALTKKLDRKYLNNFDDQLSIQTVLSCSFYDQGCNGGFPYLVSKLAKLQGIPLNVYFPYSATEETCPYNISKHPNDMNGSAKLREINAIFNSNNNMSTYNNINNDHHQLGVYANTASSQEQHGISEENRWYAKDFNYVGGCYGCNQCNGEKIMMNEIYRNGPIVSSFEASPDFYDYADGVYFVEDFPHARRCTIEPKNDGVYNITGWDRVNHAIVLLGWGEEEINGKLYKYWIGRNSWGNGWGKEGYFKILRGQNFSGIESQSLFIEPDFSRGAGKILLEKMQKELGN
row,Structure (SMILES),% Inhibition @ 10 uM
1,Cn1c(S)nnc1Cn1ncc2ccccc2c1=O,3.93%
2,CCCOC(=O)CSc1nnc(O)nc1O,-5.28%
3,Cc1cc(Cl)ccc1NC(=O)C(C)N(c1ccccc1)S(C)(=O)=O (stereo not drawn),-0.992%
4,Cc1cc(C)c(S(=O)(=O)Nc2cccc3cccnc23)c(C)c1,-8.77%
5,Cc1ccccc1C(=O)Nc1c2c(nn1-c1cccc(Cl)c1)CS(=O)(=O)C2,-0.195%
6,CCOC(=O)C1=C(CN2CCN(c3ccccn3)CC2)NC(=O)NC1c1ccc(Cl)cc1 (stereo not drawn),-1.03%
7,CCc1ccc(-c2[nH]nc3nc(-c4ccc(C)cc4)cc(C(=O)NCCCOC)c23)cc1,0.747%
8,Cc1ccc(/C=C2/NC(=O)N(Cc3ccccc3)C2=O)o1,-4.15%
9,CCCCCCn1c(SC(C)CC)nc2c1c(=O)[nH]c(=O)n2C (stereo not drawn),-2.68%
10,O=C(O)c1[nH]c2ccc(Cl)cc2c1CC(=O)N1CCC2(CC1)OCCO2,-4.74%
11,Cc1cc(Cl)nc(Cl)c1C(=O)NCCc1ccccc1,-1.82%
12,C=CCn1c(SCC(=O)Nc2ccc(OC)cc2)nc2sc(CC)cc2c1=O,-5.34%
13,Cc1ccccc1C1CC(=O)NC2=C1C(=O)CCC2 (stereo not drawn),-11.6%
14,CCCCc1c(O)c2ccccc2n(C)c1=O,12.6%
15,COc1ccc(CN2C(=O)c3cccnc3C2=O)cc1S(=O)(=O)N1CCOCC1,3.43%
16,COC(=O)C1=CN(C23CC4CC(CC(C4)C2)C3)C=C(C(=O)OC)C1c1ccccc1OC(C)C,-7.23%
17,O=C(NCCCN1CCC(Cc2ccccc2)CC1)c1ccc(CS(=O)c2ccccc2)o1 (stereo not drawn),-6.89%
18,O=C(COc1ccc(Br)cc1)Nc1nc2ccccc2s1,0.812%
19,O=C1c2ccccc2C(=O)C1c1ccccn1,1.8%
20,Nc1ccc(Cl)cc1-n1nc(-c2ccccc2)c2ccccc2c1=O,-3.6%
21,Oc1ccc(SCCCCN2CCCCCC2)cc1,2.33%
22,Cc1nc2c(=O)sc3ccccc3c2n1Cc1ccccc1,-1.32%
23,COc1ccc(CCNC(=O)C2CC2)cc1,4%
24,CN(CC(=O)NCCC1=CCCCC1)S(=O)(=O)c1ccc2[nH]c3c(c2c1)CCCC3,6.78%
25,c1ccc(C2CNCc3c2ccc2ccccc32)cc1 (stereo not drawn),2.68%
26,CC1=C(C#N)C(c2ccc(F)cc2)C2=C(O)c3ccccc3C2=N1 (stereo not drawn),-6.38%

row,Structure (SMILES),% Inhibition @ 10 uM
1,NS(=O)(=O)c1ccc(CCNC(=O)C2CCCN(S(=O)(=O)c3cccc4nonc34)C2)cc1 (stereo not drawn),-5.2%
2,Cc1ccc(-c2cc(C(=O)N3CCc4ccccc4C3)[nH]n2)cc1C,-0.899%
3,Cc1ccc(-n2ncc3c(N(CCO)Cc4ccccc4)ncnc32)cc1C,-1.27%
4,Cc1ccc(C2=NNC(=O)C(P(=O)(c3ccccc3)c3ccccc3)C2)cc1 (stereo not drawn),-3.33%
5,Cn1c(=O)c2c(nc(Sc3nc4ccccc4n3CC(=O)N3CCOCC3)n2C)n(C)c1=O,18.3%
6,COc1cc(OC)cc(C(=O)Nc2ccc(OCC(=O)O)cc2)c1,-1.61%
7,CCOC(=O)c1c(C)nc2n(C)c3ccccc3n12,0.486%
8,COC(=O)c1nnn(-c2cc(C)ccc2OC)c1C(=O)OC,0.163%
9,O=C(O)C1CCCCC1C(=O)NCCCN1CCOCC1 (stereo not drawn),5.83%
10,N#CC1=C(N)OC2=C(C(=O)CC(c3ccccc3)C2)C1c1ccc(O)cc1 (stereo not drawn),1.48%
11,Sc1nnc(-c2ccc(Cl)cc2Cl)n1-c1ccc(Cl)cc1,8.76%
12,CCC(C)NC(=O)c1c(C)nn(-c2ccc(F)cc2)c1-n1cccc1 (stereo not drawn),3.22%
13,COc1ccc(OC)c(C2C(C#N)=C(N)Oc3cc(O)ccc32)c1 (stereo not drawn),4.7%
14,CCOc1ccc(-c2[nH]nc3c2C(c2ccc(F)cc2F)C(C#N)=C(N)O3)cc1 (stereo not drawn),-4.65%
15,COCC(C)NC(=O)C1CC(c2ccc(OC)cc2)=NO1 (stereo not drawn),1.62%
16,N=C1SC2CS(=O)(=O)CC2N1Cc1ccccc1Cl (stereo not drawn),-4.75%
17,CCCSc1nc2c(c(=O)[nH]c(=O)n2C)n1Cc1ccccc1Cl,-0.864%
18,Cc1ccc(CNC(=O)CNC(=S)N(Cc2cccs2)C2CCCC2)cc1,-2.14%
19,COc1ccc(C(=O)NCc2nnc(SCC(=O)NCCc3ccc(OC)c(OC)c3)o2)cc1,-1.58%
20,Cn1c(=O)n(Cc2ccc(C#N)cc2)c(=O)c2c1ncn2Cc1ccccc1,-0.891%
21,N#CC1=C(N)OC2=C(C(=O)CCC2)C12C(=O)Nc1ccc(Br)cc12 (stereo not drawn),7.47%
22,C/C(=N\[C@@H](CC1CCCCC1)C(=O)NCC#N)NS(=O)(=O)c1ccccc1,-6.56%
23,O=C(Nc1ccc(F)cc1)c1ccccc1Cl,4.12%
24,CCN(CC)CC#CC(C)OC(C)=O (stereo not drawn),-3.32%
25,COc1ccc(CN2CC=C(c3ccc(F)cc3)CC2)c(O)c1,-1.21%
26,O=C1C2C3c4ccccc4C(c4ccccc43)C2C(=O)N1c1ccc2c(c1)OCO2 (stereo not drawn),-8.49%

row,Structure (SMILES),% Inhibition @ 10 uM
1,O=S(=O)(NCc1ccccc1)c1cccc(S(=O)(=O)c2ccc(Cl)cc2)c1,-5.36%
2,COc1cccc(/C=C2/NC(=O)NC2=O)c1OC(C)C,0.161%
3,CC1=C(C(=O)Nc2cccc(C)n2)C(c2ccc3c(c2)OCO3)C2=C(O)CCCC2=N1 (stereo not drawn),-2.07%
4,Cc1cc(O)n2nc(-c3cccc(Br)c3)cc2n1,-2.87%
5,COC(=O)c1ccc(CN2CCc3c([nH]c4ccccc34)C2)cc1,-5.31%
6,CCOc1ccccc1C1C(C#N)=C(N)Oc2c1c(O)nc1ccccc21 (stereo not drawn),-0.446%
7,CCOC(=O)c1cc(NC(=O)N(CC)CC)c(C)nc1C,-2.4%
8,CCN(CC)C(=O)Cn1ncc2c3ccccc3n(Cc3cccc(Cl)c3)c2c1=O,3.4%
9,COc1ccc(C(=O)Nc2nc(-c3cccc(Br)c3)cs2)c(OC)c1,5.99%
10,O=C(CCC1CCCC1)N1CCN(c2ccc(F)cc2)CC1,3.76%
11,O=C(COc1ccccc1)NCc1nc2ccccc2n1Cc1ccccc1Cl,-2.28%
12,CC(C)c1ccc(S(=O)(=O)c2cc3cc(Br)ccc3oc2=O)cc1,0.44%
13,CN1CCCN(Cc2cccs2)CC1,1.63%
14,COc1ccc(CNCc2ccco2)cc1,0.177%
15,Cc1ccc(S(=O)(=O)c2ccc(Cl)c(Cl)c2)cc1S(=O)(=O)N1CCOCC1,-0.999%
16,Cc1ccc2c(CNC3CCCC(C)C3C)c(C(=O)O)[nH]c2c1 (stereo not drawn),-7.56%
17,O=C(O)c1nn(-c2ccccc2)c(=O)c2ccccc12,3.48%
18,CC(C)c1c(O)c2c(n(-c3ccccc3)c1=O)CC(C)(C)CC2=O,-1.98%
19,CC(C)C1N(C(=O)CSc2nc3cc(Cl)ccc3s2)CCN1S(=O)(=O)c1ccccc1 (stereo not drawn),2.72%
20,CCCCNC(=O)CN(c1cccc(C(F)(F)F)c1)S(C)(=O)=O,-5.1%
21,CCOc1cc(/C=C2/C(=O)ON=C2C)ccc1OCc1ccccc1,3.06%
22,CCOc1cc(C2c3c(-c4ccccc4O)n[nH]c3C(=O)N2CCCOC(C)C)ccc1O (stereo not drawn),-3.12%
23,Cc1nn(-c2ccccc2)c2sc(C(=O)NCCO)cc12,2.6%
24,Cc1ccc2nc(N(CCCN(C)C)C(=O)c3ccc(Cl)cc3)sc2c1,-4.05%
25,Cc1cc(C)c2c(N)c(C(=O)NC3CC3)sc2n1,11.4%
26,CC(C)(C)NC(=O)N1CCn2c(nc3ccccc32)C1,0.66%

row,Structure (SMILES),% Inhibition @ 10 uM
1,CC1CCC(C(=O)NC(C(=O)NCCCN2CCCC2=O)C(C)C)CC1 (stereo not drawn),-4.06%
2,COc1ccc(C2=NN(CC(=O)NCCN3C(C)CCCC3C)C(=O)CC2)cc1 (stereo not drawn),1.62%
3,CC(C)(C)N1C(=O)c2ccc(C(=O)Nc3ccc(OCC(=O)O)cc3)cc2C1=O,3.49%
4,CCCN(CCC)c1nc(-n2cccc2)nc(-n2nnc(C(C)=O)c2C)n1,-6.74%
5,Cc1ccn(-c2cc(-c3cccs3)cc(-n3ccc(C)n3)n2)n1,-2.98%
6,O=C1CCCN1CCCNc1nc2c(S(=O)(=O)c3ccccc3)nnn2c2ccc(Cl)cc12,-3.08%
7,COc1ccc(-c2nc(NC3CCCCC3)sc2CCC(=O)O)cc1,2.62%
8,Cc1ccccc1C(O)c1ccncc1 (stereo not drawn),2.01%
9,OC(c1ccccc1)c1nc2ccccc2n1CCc1ccccc1 (stereo not drawn),-2.92%
10,CC(=O)C1=C(O)C=C(c2ccco2)CC1c1ccco1 (stereo not drawn),1.57%
11,COc1cccc(OCC(O)CN2C(C)CCCC2C)c1 (stereo not drawn),-12.5%
12,O=C(O)CCCC(=O)N1CCN(c2ccc(F)cc2)CC1,-6.51%
13,CCC(C)(C)C1CCc2c(sc(N)c2C(N)=O)C1 (stereo not drawn),-0.436%
14,OC1CCC(C2CC3CCC2C3)CC1O (stereo not drawn),-1.77%
15,O=C(CSc1ccc(Cl)cc1)N1CCN(c2ccccc2F)CC1,-15.2%
16,O=S(=O)(c1ccc2nc(O)c(O)nc2c1)N1CCN(Cc2ccccc2)CC1,-0.601%
17,CC/N=C(\NS(=O)(=O)c1ccc(Cl)cc1)c1ccc(OC)cc1,-0.0267%
18,CCOC(=O)C1=CN(C(C)C)C=C(C(=O)OCC)C1c1cccc(Cl)c1,3.45%
19,Cc1cc(C)nc(SCC(=O)Nc2ccccn2)n1,-1.68%
20,Oc1oc(-c2ccc(Br)cc2)nc1/C=N/c1nc2ccccc2s1,11.9%
21,CC(C)COC(=O)N[C@@H](CC(C)C)C(=O)NCC#N,-2.35%
22,COc1cccc(OC)c1C(=O)Nc1ccc(Br)cc1,4.75%
23,Cc1nc2ccc(S(=O)(=O)NC(C(=O)NC3CCCCC3)c3ccccc3)cc2s1 (stereo not drawn),4.33%
24,COc1ccc(Cl)cc1C(=O)N(C)c1ccccc1,-0.796%
